Over roughly 33,000 sequences, “E-score (-0.5 to 0.5)” has its median near -0.036; the highest 2% begin near 0.37. The list shows a part of the results.
Target: T1, Yer064c (UniProt P40041)
T1 sequence: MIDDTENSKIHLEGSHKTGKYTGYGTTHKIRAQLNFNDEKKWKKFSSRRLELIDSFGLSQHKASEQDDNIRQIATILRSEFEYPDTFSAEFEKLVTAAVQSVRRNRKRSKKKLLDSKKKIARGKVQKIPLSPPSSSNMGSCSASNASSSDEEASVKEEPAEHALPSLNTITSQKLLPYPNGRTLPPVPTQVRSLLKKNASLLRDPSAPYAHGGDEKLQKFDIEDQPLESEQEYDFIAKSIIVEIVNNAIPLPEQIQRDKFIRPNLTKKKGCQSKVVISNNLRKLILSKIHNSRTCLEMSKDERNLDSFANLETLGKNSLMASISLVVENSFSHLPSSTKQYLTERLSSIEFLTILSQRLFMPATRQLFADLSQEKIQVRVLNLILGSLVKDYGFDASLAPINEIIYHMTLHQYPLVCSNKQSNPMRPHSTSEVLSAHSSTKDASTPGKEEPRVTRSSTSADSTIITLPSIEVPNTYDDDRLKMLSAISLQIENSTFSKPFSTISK
Experiment: PBM E-score (8-mer binding enrichment) (E-score (-0.5 to 0.5)); higher = stronger / more preferred TF binding; most listed sequences are background and not binding sites
Settings: protein concentration: 200 nM; construct: GST-full length
Procedure: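 Universal 'all 10-mer' protein binding microarrays (Agilent AMADID 015681) probed with GST-tagged S. cerevisiae TFs (full-length or DBD) made by in vitro transcription/translation (PURExpress), about 100-200 nM. Bound TF was detected with fluorescent anti-GST. Each ungapped 8-mer (which stands for itself and its reverse complement) is scored by the PBM enrichment score (E-score), a modified Wilcoxon-Mann-Whitney statistic from -0.5 to +0.5, computed with the Universal PBM Analysis Suite. Scale: above 0.35 generally sequence-specific binding.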

Row | Sequence | PBM E-score
1 | AAGGTTTC | 0.0314
2 | GCCTGGAC | -0.206
3 | AGGTCGCG | -0.153
4 | ACCTACCA | -0.0333
5 | CGAGAGGC | -0.247
6 | AAATACTC | 0.248
7 | GCGTCTAA | -0.097
8 | ATGGCGGG | -0.0628
9 | CGCTAGAA | -0.134
10 | CGGCAGCA | -0.417
11 | CGACTTCC | 0.201
12 | GCGCTTAA | -0.0183
13 | TCGTGGCA | -0.0418
14 | GGAGTCAC | 0.485
15 | GCCTTTCA | -0.182
16 | ATGGCAGG | -0.263
17 | GTCCGCAA | 0.00032
18 | AGACAAGG | -0.194
19 | ACTATGAA | 0.2
20 | ATGGGCGA | 0.0478
21 | CGCAGCTC | -0.196
22 | CCTATTGC | -0.246
23 | AAATACCT | -0.197
24 | GCATGGGA | -0.224
25 | AAATTCTC | -0.233

Row | Sequence | PBM E-score
26 | GATCCCAA | -0.0873
27 | CGACCTGA | 0.185
28 | GCTGTATA | -0.136
29 | ACACTGGA | -0.0404
30 | AACGCCGT | -0.109
31 | AATCAGCG | 0.344
32 | GACATACA | -0.0664
33 | ACTAACTG | 0.27
34 | GCCAGAGA | -0.0259
35 | CATGAGGG | -0.0866
36 | CATTTGTC | -0.0893
37 | GTAGAGGA | -0.303
38 | ACCCTCGG | -0.163
39 | CATACTGA | 0.196
40 | CCCTTGAG | 0.0766
41 | GCCACTGA | 0.171
42 | ATAACTTC | -0.154
43 | GAAGGTTA | 0.0921
44 | AAGGAGGA | -0.212
45 | CCATAACG | -0.0401
46 | GAGCCTGA | 0.0249
47 | GGAAAATA | -0.141
48 | AACGTCTA | 0.0385
49 | ACCGCGAT | -0.133
50 | AAGATCCC | -0.11

Row | Sequence | PBM E-score
51 | AGGCGATC | -0.099
52 | GGATGAGA | 0.0635
53 | ATTGGTGA | 0.121
54 | CGTGGTGC | -0.306
55 | ATTACACA | 0.253
56 | CCACATGC | 0.011
57 | GAGTTCAA | 0.2
58 | CGGTTTGC | -0.251
59 | AAAGATTG | -0.0779
60 | ACTTAGGG | 0.0998
61 | GGGCGGCA | -0.406
62 | CTGAATCC | 0.235
63 | AGCCTCAG | -0.212
64 | AGGAATCG | 0.235
65 | CCGAGCGG | -0.179
66 | CATGGTGC | -0.127
67 | GTCATTTA | 0.311
68 | AGGGTTTG | -0.146
69 | CACCGCGC | -0.208
70 | AAGTTTAG | 0.126
71 | ATCACACG | 0.202
72 | ATTCTGAA | 0.0724
73 | CGGTTTGA | 0.128
74 | CAGGAGCA | -0.197
75 | GCGGCCGA | -0.137

Row | Sequence | PBM E-score
76 | CATCGTCC | 0.0233
77 | AAGACTGC | 0.137
78 | ACACAGCA | 0.074
79 | TAAATAGA | -0.0313
80 | AGCGACTG | 0.255
81 | AGATGCAA | -0.0465
82 | AACAGCAG | -0.26
83 | AACAGACA | 0.0465
84 | CAATTCCG | -0.128
85 | GACAGACC | -0.14
86 | AGATTCTC | 0.0991
87 | ATCACGAC | 0.225
88 | CTGATCAG | 0.0524
89 | AACAATAG | -0.0575
90 | CGTATCAA | 0.0087
91 | GCACTTGA | 0.0209
92 | TGATTCCA | 0.398
93 | ATGCGCTC | -0.234
94 | ACACCTTA | 0.0237
95 | CACATGTC | 0.0407
96 | AATGCAGG | -0.108
97 | ACATAAGA | 0.137
98 | ATTGTCGA | -0.00639
99 | ATGCGCCG | -0.118
100 | ACTACGAT | 0.233

Row | Sequence | PBM E-score
101 | AGTGCGCA | -0.142
102 | CAGGAGCC | -0.202
103 | GTGGCACA | -0.0722
104 | AGGTTGGC | -0.296
105 | AGTGTACC | -0.228
106 | CTTTTTTC | 0.118
107 | GCCGGCGC | -0.146
108 | CTGGTTCC | -0.171
109 | TAGCCCGA | -0.192
110 | CCGATGAA | -0.0637
111 | GATCCTGC | -0.186
112 | AGAGTCCT | 0.298
113 | GACCCAGA | -0.115
114 | CACTTATG | 0.0565
115 | TACTGCCA | -0.16
116 | CCCGAAGC | -0.156
117 | CGCGGGAG | 0.0995
118 | TCTTCTCA | 0.197
119 | GCGCCAAC | -0.196
120 | ATTAAAAC | 0.148
121 | ACCAGAGT | 0.179
122 | CCACAGTA | -0.00862
123 | ACGGGCAG | 0.0109
124 | GAGATTAA | 0.245
125 | ATTTGTTA | 0.0563

Row | Sequence | PBM E-score
126 | AGAGGCTC | -0.195
127 | CATTAATG | 0.0773
128 | GGGACTAC | 0.228
129 | CTTTTCAC | -0.159
130 | CTGATTAA | 0.405
131 | AATATGCC | -0.138
132 | CTTGGTAC | -0.0727
133 | CAGTAATA | 0.124
134 | CGAGCGGA | -0.153
135 | CAATGCAC | 0.0625
136 | GAGGGCGC | -0.45
137 | CATAGATG | 0.0355
138 | GGAGAGCA | -0.193
139 | GACGCAGA | 0.0426
140 | GGAAGGAC | 0.142
141 | GAGTTAAA | 0.00363
142 | ATCTGAAG | 0.0612
143 | AATCGTTC | 0.0572
144 | AAGTACAG | -0.121
145 | CCTGGGTC | -0.0626
146 | AGTTGATG | 0.0667
147 | CGCAGCAA | 0.00828
148 | AAATTGCT | -0.3
149 | ATCCCAAG | -0.179
150 | GGGCGCTA | -0.35

Row | Sequence | PBM E-score
151 | ACCCACAC | 0.127
152 | TGTCTAAA | 0.166
153 | ATCTTATC | 0.0972
154 | CGTCCAAG | -0.177
155 | ACCCGCGA | 0.0279
156 | AGATGTCG | -0.0862
157 | AACTCGGG | -0.0331
158 | CCTAAGAC | 0.0138
159 | AGGCGGCA | -0.203
160 | CATGGTCG | 0.082
161 | GGCAACCC | -0.23
162 | AACACATT | 0.047
163 | CAACACTA | 0.0847
164 | ACTATGCT | 0.106
165 | GAAATGGA | 0.0452
166 | AGTTGTCG | -0.0742
167 | TTAAATAA | 0.0382
168 | ACAAGGCG | -0.166
169 | TCGCGCAA | 0.137
170 | ATCCGTAA | -0.178
171 | CGTGGAGC | -0.124
172 | CAGGAATG | -0.0706

Source: the supplement of paper PMC3334620
